{
  "source": "paper PMC9911399",
  "about": "“Two distinct binding modes provide the RNA-binding protein RbFox with extraordinary sequence specificity”",
  "binders": {"B1": {"name": "AUCACGC (DNA:RNA)", "RNA": "GGGAGACCGGAAUUCAGAUUGUCCAUCACGCUUAAAUCCCGUCGUAGCCACCA", "DNA 1": "CAATCTGAATTCCGGTCTCCC", "DNA 2": "TGGTGGCTACGACGGGATT"}, "B2": {"name": "ACCAGUU (DNA:RNA)", "RNA": "B1 RNA with U26C, C29G, G30U, C31U", "DNA 1": "CAATCTGAATTCCGGTCTCCC", "DNA 2": "TGGTGGCTACGACGGGATT"}, "B3": {"name": "AGGGAUG (DNA:RNA)", "RNA": "B1 RNA with U26G, C27G, A28G, C29A, G30U, C31G", "DNA 1": "CAATCTGAATTCCGGTCTCCC", "DNA 2": "TGGTGGCTACGACGGGATT"}, "B4": {"name": "CGGUCCC (DNA:RNA)", "RNA": "B1 RNA with A25C, U26G, C27G, A28U, G30C", "DNA 1": "CAATCTGAATTCCGGTCTCCC", "DNA 2": "TGGTGGCTACGACGGGATT"}, "B5": {"name": "AGCGGAC (DNA:RNA)", "RNA": "B1 RNA with U26G, A28G, C29G, G30A", "DNA 1": "CAATCTGAATTCCGGTCTCCC", "DNA 2": "TGGTGGCTACGACGGGATT"}, "B6": {"name": "CAGCGUC (DNA:RNA)", "RNA": "B1 RNA with A25C, U26A, C27G, A28C, C29G, G30U", "DNA 1": "CAATCTGAATTCCGGTCTCCC", "DNA 2": "TGGTGGCTACGACGGGATT"}, "B7": {"name": "CGAGUUG (DNA:RNA)", "RNA": "GGGAGACCGGAAUUCAGAUUGUCCCGAGUUGUUAAAUCCCGUCGUAGCCACCA", "DNA 1": "CAATCTGAATTCCGGTCTCCC", "DNA 2": "TGGTGGCTACGACGGGATT"}, "B8": {"name": "GCGGAAA (DNA:RNA)", "RNA": "B7 RNA with C25G, G26C, A27G, U29A, U30A, G31A", "DNA 1": "CAATCTGAATTCCGGTCTCCC", "DNA 2": "TGGTGGCTACGACGGGATT"}, "B9": {"name": "GAACCCA (DNA:RNA)", "RNA": "B1 RNA with A25G, U26A, C27A, A28C, G30C, C31A", "DNA 1": "CAATCTGAATTCCGGTCTCCC", "DNA 2": "TGGTGGCTACGACGGGATT"}, "B10": {"name": "ACGCCAA (DNA:RNA)", "RNA": "B1 RNA with U26C, C27G, A28C, G30A, C31A", "DNA 1": "CAATCTGAATTCCGGTCTCCC", "DNA 2": "TGGTGGCTACGACGGGATT"}, "B11": {"name": "GUCGUCC (DNA:RNA)", "RNA": "B1 RNA with A25G, A28G, C29U, G30C", "DNA 1": "CAATCTGAATTCCGGTCTCCC", "DNA 2": "TGGTGGCTACGACGGGATT"}, "B12": {"name": "UGCGAGU (DNA:RNA)", "RNA": "B1 RNA with A25U, U26G, A28G, C29A, C31U", "DNA 1": "CAATCTGAATTCCGGTCTCCC", "DNA 2": "TGGTGGCTACGACGGGATT"}, "B13": {"name": "UACGACA (DNA:RNA)", "RNA": "B1 RNA with A25U, U26A, A28G, C29A, G30C, C31A", "DNA 1": "CAATCTGAATTCCGGTCTCCC", "DNA 2": "TGGTGGCTACGACGGGATT"}, "B14": {"name": "GAGUGAC (DNA:RNA)", "RNA": "B1 RNA with A25G, U26A, C27G, A28U, C29G, G30A", "DNA 1": "CAATCTGAATTCCGGTCTCCC", "DNA 2": "TGGTGGCTACGACGGGATT"}, "B15": {"name": "AGGUCAU (DNA:RNA)", "RNA": "B1 RNA with U26G, C27G, A28U, G30A, C31U", "DNA 1": "CAATCTGAATTCCGGTCTCCC", "DNA 2": "TGGTGGCTACGACGGGATT"}, "B16": {"name": "CGGUAGC (DNA:RNA)", "RNA": "B1 RNA with A25C, U26G, C27G, A28U, C29A", "DNA 1": "CAATCTGAATTCCGGTCTCCC", "DNA 2": "TGGTGGCTACGACGGGATT"}, "B17": {"name": "GGAUGAU (DNA:RNA)", "RNA": "B7 RNA with C25G, G28U, U29G, U30A, G31U", "DNA 1": "CAATCTGAATTCCGGTCTCCC", "DNA 2": "TGGTGGCTACGACGGGATT"}, "B18": {"name": "GACUACG (DNA:RNA)", "RNA": "B1 RNA with A25G, U26A, A28U, C29A, G30C, C31G", "DNA 1": "CAATCTGAATTCCGGTCTCCC", "DNA 2": "TGGTGGCTACGACGGGATT"}, "B19": {"name": "GUCGUCG (DNA:RNA)", "RNA": "B7 RNA with C25G, G26U, A27C, U30C", "DNA 1": "CAATCTGAATTCCGGTCTCCC", "DNA 2": "TGGTGGCTACGACGGGATT"}, "B20": {"name": "ACACUUA (DNA:RNA)", "RNA": "B7 RNA with C25A, G26C, G28C, G31A", "DNA 1": "CAATCTGAATTCCGGTCTCCC", "DNA 2": "TGGTGGCTACGACGGGATT"}},
  "note": "Positions count from the first letter of the chain named. The list shows a part of the results.",
  "data": [
    {"target": "T1, RBFOX1 RRM RbFoxmut (Fox-RRM*) (Homo sapiens, UniProt Q9NWB1 109-208, R118D;E147R;N151S;E152T)", "T1 sequence": "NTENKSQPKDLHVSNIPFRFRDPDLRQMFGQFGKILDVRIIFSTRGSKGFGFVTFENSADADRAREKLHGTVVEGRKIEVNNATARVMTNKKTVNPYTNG", "assay": "EMSA; HiTS-Eq, 1 nM pool, 10 min; buffer printed only for the single-RNA assays: 10 mM Tris pH 7.5, 150 mM NaCl, 3.4 mM EDTA, 0.001% NP-40, 30 C", "details": "tags: His6 N-terminal (pET28a); label: 5' 32P", "outline": "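Purified RbFox RRM, wild type or mutant, was incubated for 10 min in 50 µL with 1 nM of a 5′-radiolabelled RNA pool carrying 7 randomized nucleotides, whose flanks were annealed to DNA oligonucleotides, over a series of increasing protein concentrations. Unbound RNA was resolved on 8% native PAGE, cut out, reverse-transcribed, barcoded by PCR and sequenced on an Illumina HiSeq 2500. Relative association constants were derived from changes in read counts for each RNA species versus the control reaction and normalised to the cognate motif.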", "values": [
      {"binder": "B1", "binding signal": "0.102 KA relative to UGCAUGU"},
      {"binder": "B2", "binding signal": "0.0728 KA relative to UGCAUGU"},
      {"binder": "B3", "binding signal": "0.476 KA relative to UGCAUGU"},
      {"binder": "B4", "binding signal": "0.059 KA relative to UGCAUGU"},
      {"binder": "B5", "binding signal": "0.0724 KA relative to UGCAUGU"},
      {"binder": "B6", "binding signal": "0.126 KA relative to UGCAUGU"},
      {"binder": "B7", "binding signal": "0.114 KA relative to UGCAUGU"},
      {"binder": "B8", "binding signal": "0.0932 KA relative to UGCAUGU"},
      {"binder": "B9", "binding signal": "0.0628 KA relative to UGCAUGU"},
      {"binder": "B10", "binding signal": "0.0795 KA relative to UGCAUGU"},
      {"binder": "B11", "binding signal": "0.102 KA relative to UGCAUGU"},
      {"binder": "B12", "binding signal": "0.153 KA relative to UGCAUGU"},
      {"binder": "B13", "binding signal": "0.0569 KA relative to UGCAUGU"},
      {"binder": "B14", "binding signal": "0.0683 KA relative to UGCAUGU"},
      {"binder": "B15", "binding signal": "0.0811 KA relative to UGCAUGU"},
      {"binder": "B16", "binding signal": "0.0916 KA relative to UGCAUGU"},
      {"binder": "B17", "binding signal": "0.208 KA relative to UGCAUGU"},
      {"binder": "B18", "binding signal": "0.119 KA relative to UGCAUGU"},
      {"binder": "B19", "binding signal": "0.15 KA relative to UGCAUGU"},
      {"binder": "B20", "binding signal": "0.129 KA relative to UGCAUGU"}
    ]}
  ]
}
